This is an account of results in article PMC11995724, “Antibiotic target discovery by integrated phenotypic and activity-based profiling of electrophilic fragments” (Cell chemical biology, 2025).

Among all 3,200 compounds or so, about 110 (3.4%) showed an effect of 50% or more. Some of the results follow.

In the test the test system is T1, V. cholerae SAD30.
T1 construct: SAD30
Set-up: species or system S. aureus MSSA476 (TSB) or V. cholerae SAD30 (LB); 384-well bacterial growth screen at 25 uM, OD600 relative to DMSO control. The note with it: relative growth, OD600, LB; 25 µM; inhibitor.
In the case of `C=CC(=O)Nc1ccc(C(=O)NC2CCN(C(C)C)C2=O)cc1` (stereo not drawn) [3-C10, N-[2-oxo-1-(propan-2-yl)pyrrolidin-3-yl]-4-(prop-2-enamido)benzamide], the “% of control remaining” value is reported as 104.264%.
The value for `CC(Cl)C(=O)N1CC(=O)Nc2cc(C(F)(F)F)ccc21` (stereo not drawn) [4-N20, 4-(2-chloropropanoyl)-7-(trifluoromethyl)-1,2,3,4-tetrahydroquinoxalin-2-one] was 104.378%; that for `C=CC(=O)N(C)Cc1cc2ccccc2o1` [3-I09, N-[(1-benzofuran-2-yl)methyl]-N-methylprop-2-enamide] was 87.6787%; that for `C=CS(=O)(=O)Nc1ccccc1` [10-C07, N-phenylethene-1-sulfonamide] was 102.24%.
The value for `CC(Cl)C(=O)N1CCOC(c2ccc(Cl)s2)C1` (stereo not drawn) [6-N07, 2-chloro-1-[2-(5-chlorothiophen-2-yl)morpholin-4-yl]propan-1-one] was 93.1273%.
Consider `O=C(CCl)Cc1ccc(Cl)cc1Cl` [10-A15, 1-chloro-3-(2,4-dichlorophenyl)propan-2-one], for which the “% of control remaining” value is 22.1313%.
Turning to `C=CC(=O)NC1CCSC(C)C1` (stereo not drawn) [1-J06, N-(2-methylthian-4-yl)prop-2-enamide], the “% of control remaining” value was found to be 108.685%.
For `C=CC(=O)N1CCC(C(=O)NCc2ccc(C(N)=O)nc2)CC1` [3-N05, 5-({[1-(prop-2-enoyl)piperidin-4-yl]formamido}methyl)pyridine-2-carboxamide] the value was 97.7357%; for `Cc1cccc2[nH]cc(C(=O)CCl)c12` [10-H09, 2-chloro-1-(4-methyl-1H-indol-3-yl)ethan-1-one], 100.526%.
As for `CC(C)(C)N(Cc1ccccc1)C(=O)CCl` [5-H20, N-benzyl-N-tert-butyl-2-chloroacetamide], the “% of control remaining” value turned out to be 97.1735%.
For `C=CC(=O)N1CCOC(c2ccccc2Cl)C1` (stereo not drawn) [1-P20, 1-[2-(2-chlorophenyl)morpholin-4-yl]prop-2-en-1-one] the value was 138.616%; for `C=CC(=O)NCc1ccccc1-n1ccc(C)n1` [1-J19, N-{[2-(3-methyl-1H-pyrazol-1-yl)phenyl]methyl}prop-2-enamide], 86.0987%.
The value for `CN(C)S(=O)(=O)c1ccc(Cl)c(NC(=O)CCl)c1` [6-H12, 2-chloro-N-[2-chloro-5-(dimethylsulfamoyl)phenyl]acetamide] was 86.757%.
The value for `C=CC(=O)NC(c1nnc2n1CCC2)C(C)C` (stereo not drawn) [3-P07, N-(2-methyl-1-{5H,6H,7H-pyrrolo[2,1-c][1,2,4]triazol-3-yl}propyl)prop-2-enamide] was 104.44%; that for `Cl.O=C(CCl)NCC(c1nccs1)N1CCCC1` (stereo not drawn) [6-D11, 2-chloro-N-[2-(pyrrolidin-1-yl)-2-(1,3-thiazol-2-yl)ethyl]acetamide hydrochloride] was 92.0656%; that for `N#CC(=Cc1cccc2ccccc12)C(=O)NCc1ccc(Cl)cc1` [8-J09, N-[(4-chlorophenyl)methyl]-2-cyano-3-(naphthalen-1-yl)prop-2-enamide] was 74.7111%.
Take `C=CC(=O)N1CCC(C(O)c2ccnn2C)CC1` (stereo not drawn) [3-K03, 1-{4-[hydroxy(1-methyl-1H-pyrazol-5-yl)methyl]piperidin-1-yl}prop-2-en-1-one]: the “% of control remaining” value was 106.91%.
For `Cc1ccccc1C(C)NC(=O)C(C#N)=Cc1ccco1` (stereo not drawn) [9-E06, 2-cyano-3-(furan-2-yl)-N-[1-(2-methylphenyl)ethyl]prop-2-enamide] the value was 75.9347%; for `N#CC(=CNc1ccc(F)cc1)C(=O)NCc1ccccc1` [8-E20, N-benzyl-2-cyano-3-[(4-fluorophenyl)amino]prop-2-enamide], 82.4609%; for `CC(C)(C)OC(=O)[C@H]1C[C@@H]1C(=O)CCl` (racemic) [10-C13, rac-tert-butyl (1R,2R)-2-(2-chloroacetyl)cyclopropane-1-carboxylate], 106.293%.
For `Cc1ccc([N+](=O)[O-])cc1N1C(=O)C=CC1=O` [10-O14, 1-(2-methyl-5-nitrophenyl)-2,5-dihydro-1H-pyrrole-2,5-dione], the “% of control remaining” value was 26.6511%.
The value for `COc1ccc2nnc(CNC(=O)C(C)Cl)n2n1` (stereo not drawn) [7-J15, 2-chloro-N-({6-methoxy-[1,2,4]triazolo[4,3-b]pyridazin-3-yl}methyl)propanamide] was 82.6037%; that for `COc1cc2c(cc1NC(=O)C(C)Cl)oc1ccccc12` (stereo not drawn) [6-G09, 2-chloro-N-{4-methoxy-8-oxatricyclo[7.4.0.0,2,7]trideca-1(9),2(7),3,5,10,12-hexaen-5-yl}propanamide] was 55.9674%; that for `C=CC(=O)NCc1c(F)cccc1S(=O)(=O)N(C)C` [3-L15, N-{[2-(dimethylsulfamoyl)-6-fluorophenyl]methyl}prop-2-enamide] was 91.9133%.
For `O=C(Nc1nccs1)N1CCSSCC1` [10-O22, N-(1,3-thiazol-2-yl)-1,2,5-dithiazepane-5-carboxamide] the value was 98.344%; for `N#CC(=Cc1ccc(N2CCOCC2)cc1)C(=O)Nc1nccs1` [9-F17, 2-cyano-3-[4-(morpholin-4-yl)phenyl]-N-(1,3-thiazol-2-yl)prop-2-enamide], 83.6846%.
For `CC(=O)Nc1ccc(C=C(C#N)C(=O)Nc2cccc(C)c2C)cc1` [9-D19, 2-cyano-N-(2,3-dimethylphenyl)-3-(4-acetamidophenyl)prop-2-enamide] the value was 89.5309%.
Take `C=CC(=O)Nc1ccc(C(=O)N[C@@H]2CCN(C(C)=O)C2)cc1` [2-F20, N-[(3R)-1-acetylpyrrolidin-3-yl]-4-(prop-2-enamido)benzamide]: the “% of control remaining” value came out at 92.975%.
For `C=CC(=O)Nc1ccc(F)cc1C(C)(F)F` [1-C16, N-[2-(1,1-difluoroethyl)-4-fluorophenyl]prop-2-enamide] the value was 89.8356%; for `COc1ccc2[nH]c(C)c(C(=O)CCl)c2c1` [10-L05, 2-chloro-1-(5-methoxy-2-methyl-1H-indol-3-yl)ethan-1-one], 103.176%.
The value for `Cc1cc(C(=O)CCl)c(C)n1Cc1ccccc1Cl` [10-P16, 2-chloro-1-{1-[(2-chlorophenyl)methyl]-2,5-dimethyl-1H-pyrrol-3-yl}ethan-1-one] was 103.643%.
For the molecule `CC(Cl)C(=O)N1CCCCC1c1cnn(C)c1` (stereo not drawn) [7-A03, 2-chloro-1-[2-(1-methyl-1H-pyrazol-4-yl)piperidin-1-yl]propan-1-one], the “% of control remaining” value is given as 97.5384%.
For `CN(CC(=O)Nc1ccc(F)cc1)C(=O)CCl` [4-B05, 2-chloro-N-{[(4-fluorophenyl)carbamoyl]methyl}-N-methylacetamide] the value was 108.518%; for `C=CC(=O)N1CCC(C(=O)N[C@]2(C(=O)OC)CC[C@@H](C)CC2)CC1` [3-E17, methyl (1r,4r)-4-methyl-1-[1-(prop-2-enoyl)piperidine-4-amido]cyclohexane-1-carboxylate], 101.088%; for `Cc1nc2cc(=O)[nH]n2c(C)c1CNC(=O)C(C)Cl` (stereo not drawn) [7-B07, 2-chloro-N-({5,7-dimethyl-2-oxo-1H,2H-pyrazolo[1,5-a]pyrimidin-6-yl}methyl)propanamide], 88.5511%.
For the molecule `COc1cc2c(cc1OC)C(c1ccccc1)N(C(=O)CCl)CC2` (stereo not drawn) [6-K12, 2-chloro-1-(6,7-dimethoxy-1-phenyl-1,2,3,4-tetrahydroisoquinolin-2-yl)ethan-1-one], the “% of control remaining” value turned out to be 94.0373%.
For `CC1CCCCC1NC(=O)C(C#N)=Cc1ccc(N2CCOCC2)cc1` (stereo not drawn) [8-I06, 2-cyano-N-(2-methylcyclohexyl)-3-[4-(morpholin-4-yl)phenyl]prop-2-enamide] the value was 76.2067%.
The value for `O=C(CCl)NCc1ccccc1[N+](=O)[O-]` [6-A22, 2-chloro-N-[(2-nitrophenyl)methyl]acetamide] was 107.84%; that for `C=CC(=O)Nc1c(C)cccc1SCC(=O)N(C)C` [1-E13, N-(2-{[(dimethylcarbamoyl)methyl]sulfanyl}-6-methylphenyl)prop-2-enamide] was 88.7892%.
For `CC(C)NC(=O)C(C#N)=Cc1ccc2c(c1)OCCO2` [9-E11, 2-cyano-3-(2,3-dihydro-1,4-benzodioxin-6-yl)-N-(propan-2-yl)prop-2-enamide] the value was 88.1713%; for `CN(C)c1ccc(C=C(C#N)C(N)=O)cc1` [9-O04, 2-cyano-3-[4-(dimethylamino)phenyl]prop-2-enamide], 89.8029%.
On to `O=C(CCl)Nc1nnc(-c2ccccc2Cl)s1` [6-K17, 2-chloro-N-[5-(2-chlorophenyl)-1,3,4-thiadiazol-2-yl]acetamide], for which the “% of control remaining” value came to 95.8574%.
For `C=CC(=O)N1CCOC2(CCS(=O)(=O)C2)C1` (stereo not drawn) [2-C06, 9-(prop-2-enoyl)-6-oxa-2lambda6-thia-9-azaspiro[4.5]decane-2,2-dione] the value was 96.2173%.
For `C=CC(=O)NCc1ccc(C(=O)N2CCC(C#N)CC2)cc1` [3-P05, N-{[4-(4-cyanopiperidine-1-carbonyl)phenyl]methyl}prop-2-enamide] the value was 107.793%; for `CC(Cl)C(=O)c1ccc2c(c1)NC(=O)CO2` (stereo not drawn) [10-P12, 6-(2-chloropropanoyl)-3,4-dihydro-2H-1,4-benzoxazin-3-one], 105.046%.
